# Measured values: paper PMC7315779
# Amino acid sequences for entries named in this document (tags omitted). Residues count along the entry.
# UniProt Q5S007: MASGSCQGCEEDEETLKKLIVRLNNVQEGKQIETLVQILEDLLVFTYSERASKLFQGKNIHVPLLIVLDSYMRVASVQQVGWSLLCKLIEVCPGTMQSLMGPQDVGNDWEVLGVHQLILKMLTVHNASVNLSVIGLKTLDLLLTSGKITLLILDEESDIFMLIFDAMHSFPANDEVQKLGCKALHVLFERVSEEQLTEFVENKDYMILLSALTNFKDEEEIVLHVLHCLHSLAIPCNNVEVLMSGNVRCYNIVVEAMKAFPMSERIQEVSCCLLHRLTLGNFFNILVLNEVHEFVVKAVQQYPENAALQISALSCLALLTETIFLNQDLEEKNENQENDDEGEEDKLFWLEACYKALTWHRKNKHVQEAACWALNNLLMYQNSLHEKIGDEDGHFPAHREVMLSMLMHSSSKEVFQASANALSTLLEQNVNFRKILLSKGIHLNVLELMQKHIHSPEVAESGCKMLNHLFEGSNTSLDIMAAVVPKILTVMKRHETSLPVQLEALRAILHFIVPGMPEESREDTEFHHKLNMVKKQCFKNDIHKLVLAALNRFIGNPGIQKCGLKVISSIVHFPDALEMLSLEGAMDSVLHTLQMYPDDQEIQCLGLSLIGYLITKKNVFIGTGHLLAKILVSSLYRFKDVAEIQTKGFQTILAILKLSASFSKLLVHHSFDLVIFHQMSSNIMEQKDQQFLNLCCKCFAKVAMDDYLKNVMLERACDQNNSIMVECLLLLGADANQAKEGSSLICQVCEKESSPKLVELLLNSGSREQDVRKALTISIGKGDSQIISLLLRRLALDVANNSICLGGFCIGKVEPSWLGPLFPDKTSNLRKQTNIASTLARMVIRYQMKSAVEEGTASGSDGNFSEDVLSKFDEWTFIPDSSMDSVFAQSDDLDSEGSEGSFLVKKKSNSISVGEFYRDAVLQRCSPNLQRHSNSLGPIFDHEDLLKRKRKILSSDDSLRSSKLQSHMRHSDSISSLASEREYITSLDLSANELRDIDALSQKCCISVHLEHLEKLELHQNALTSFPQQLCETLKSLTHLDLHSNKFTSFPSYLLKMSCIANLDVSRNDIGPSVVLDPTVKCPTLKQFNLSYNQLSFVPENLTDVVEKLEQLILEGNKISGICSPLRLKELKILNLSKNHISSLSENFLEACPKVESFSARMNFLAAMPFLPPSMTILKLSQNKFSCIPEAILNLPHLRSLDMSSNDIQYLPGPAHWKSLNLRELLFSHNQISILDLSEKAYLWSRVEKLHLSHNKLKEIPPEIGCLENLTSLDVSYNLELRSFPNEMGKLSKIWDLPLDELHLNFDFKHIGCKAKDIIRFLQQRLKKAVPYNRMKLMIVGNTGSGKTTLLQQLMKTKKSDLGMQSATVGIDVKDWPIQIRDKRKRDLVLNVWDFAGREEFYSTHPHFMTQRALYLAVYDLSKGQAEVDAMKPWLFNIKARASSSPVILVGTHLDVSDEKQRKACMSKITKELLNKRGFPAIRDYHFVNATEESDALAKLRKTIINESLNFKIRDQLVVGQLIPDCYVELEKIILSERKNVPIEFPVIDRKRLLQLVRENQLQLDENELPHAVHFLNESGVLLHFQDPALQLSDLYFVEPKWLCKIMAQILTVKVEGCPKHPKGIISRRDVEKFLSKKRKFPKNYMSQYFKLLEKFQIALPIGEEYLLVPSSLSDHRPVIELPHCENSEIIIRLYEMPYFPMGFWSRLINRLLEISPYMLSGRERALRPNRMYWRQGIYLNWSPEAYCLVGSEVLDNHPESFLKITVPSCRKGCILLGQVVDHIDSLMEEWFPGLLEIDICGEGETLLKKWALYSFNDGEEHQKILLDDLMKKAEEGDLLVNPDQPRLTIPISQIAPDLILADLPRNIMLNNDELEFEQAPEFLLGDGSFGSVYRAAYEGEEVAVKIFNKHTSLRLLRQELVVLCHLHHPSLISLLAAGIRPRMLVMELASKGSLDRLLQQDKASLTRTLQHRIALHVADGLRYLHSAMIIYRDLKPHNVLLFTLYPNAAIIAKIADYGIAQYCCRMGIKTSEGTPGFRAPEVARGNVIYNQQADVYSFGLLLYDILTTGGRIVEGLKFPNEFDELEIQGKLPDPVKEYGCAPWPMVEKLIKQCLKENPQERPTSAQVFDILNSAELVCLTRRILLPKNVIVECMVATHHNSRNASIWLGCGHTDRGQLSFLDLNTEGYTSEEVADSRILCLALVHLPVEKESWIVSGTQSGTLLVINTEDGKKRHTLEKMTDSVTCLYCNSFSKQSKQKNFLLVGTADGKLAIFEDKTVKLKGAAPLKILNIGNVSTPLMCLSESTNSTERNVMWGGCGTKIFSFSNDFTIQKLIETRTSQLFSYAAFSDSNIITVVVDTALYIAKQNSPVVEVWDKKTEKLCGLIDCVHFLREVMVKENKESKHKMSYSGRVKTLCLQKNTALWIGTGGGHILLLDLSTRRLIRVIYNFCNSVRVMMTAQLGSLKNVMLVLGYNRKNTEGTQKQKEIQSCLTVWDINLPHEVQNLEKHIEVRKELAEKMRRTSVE
# UniProt P11717, residues 41-2491: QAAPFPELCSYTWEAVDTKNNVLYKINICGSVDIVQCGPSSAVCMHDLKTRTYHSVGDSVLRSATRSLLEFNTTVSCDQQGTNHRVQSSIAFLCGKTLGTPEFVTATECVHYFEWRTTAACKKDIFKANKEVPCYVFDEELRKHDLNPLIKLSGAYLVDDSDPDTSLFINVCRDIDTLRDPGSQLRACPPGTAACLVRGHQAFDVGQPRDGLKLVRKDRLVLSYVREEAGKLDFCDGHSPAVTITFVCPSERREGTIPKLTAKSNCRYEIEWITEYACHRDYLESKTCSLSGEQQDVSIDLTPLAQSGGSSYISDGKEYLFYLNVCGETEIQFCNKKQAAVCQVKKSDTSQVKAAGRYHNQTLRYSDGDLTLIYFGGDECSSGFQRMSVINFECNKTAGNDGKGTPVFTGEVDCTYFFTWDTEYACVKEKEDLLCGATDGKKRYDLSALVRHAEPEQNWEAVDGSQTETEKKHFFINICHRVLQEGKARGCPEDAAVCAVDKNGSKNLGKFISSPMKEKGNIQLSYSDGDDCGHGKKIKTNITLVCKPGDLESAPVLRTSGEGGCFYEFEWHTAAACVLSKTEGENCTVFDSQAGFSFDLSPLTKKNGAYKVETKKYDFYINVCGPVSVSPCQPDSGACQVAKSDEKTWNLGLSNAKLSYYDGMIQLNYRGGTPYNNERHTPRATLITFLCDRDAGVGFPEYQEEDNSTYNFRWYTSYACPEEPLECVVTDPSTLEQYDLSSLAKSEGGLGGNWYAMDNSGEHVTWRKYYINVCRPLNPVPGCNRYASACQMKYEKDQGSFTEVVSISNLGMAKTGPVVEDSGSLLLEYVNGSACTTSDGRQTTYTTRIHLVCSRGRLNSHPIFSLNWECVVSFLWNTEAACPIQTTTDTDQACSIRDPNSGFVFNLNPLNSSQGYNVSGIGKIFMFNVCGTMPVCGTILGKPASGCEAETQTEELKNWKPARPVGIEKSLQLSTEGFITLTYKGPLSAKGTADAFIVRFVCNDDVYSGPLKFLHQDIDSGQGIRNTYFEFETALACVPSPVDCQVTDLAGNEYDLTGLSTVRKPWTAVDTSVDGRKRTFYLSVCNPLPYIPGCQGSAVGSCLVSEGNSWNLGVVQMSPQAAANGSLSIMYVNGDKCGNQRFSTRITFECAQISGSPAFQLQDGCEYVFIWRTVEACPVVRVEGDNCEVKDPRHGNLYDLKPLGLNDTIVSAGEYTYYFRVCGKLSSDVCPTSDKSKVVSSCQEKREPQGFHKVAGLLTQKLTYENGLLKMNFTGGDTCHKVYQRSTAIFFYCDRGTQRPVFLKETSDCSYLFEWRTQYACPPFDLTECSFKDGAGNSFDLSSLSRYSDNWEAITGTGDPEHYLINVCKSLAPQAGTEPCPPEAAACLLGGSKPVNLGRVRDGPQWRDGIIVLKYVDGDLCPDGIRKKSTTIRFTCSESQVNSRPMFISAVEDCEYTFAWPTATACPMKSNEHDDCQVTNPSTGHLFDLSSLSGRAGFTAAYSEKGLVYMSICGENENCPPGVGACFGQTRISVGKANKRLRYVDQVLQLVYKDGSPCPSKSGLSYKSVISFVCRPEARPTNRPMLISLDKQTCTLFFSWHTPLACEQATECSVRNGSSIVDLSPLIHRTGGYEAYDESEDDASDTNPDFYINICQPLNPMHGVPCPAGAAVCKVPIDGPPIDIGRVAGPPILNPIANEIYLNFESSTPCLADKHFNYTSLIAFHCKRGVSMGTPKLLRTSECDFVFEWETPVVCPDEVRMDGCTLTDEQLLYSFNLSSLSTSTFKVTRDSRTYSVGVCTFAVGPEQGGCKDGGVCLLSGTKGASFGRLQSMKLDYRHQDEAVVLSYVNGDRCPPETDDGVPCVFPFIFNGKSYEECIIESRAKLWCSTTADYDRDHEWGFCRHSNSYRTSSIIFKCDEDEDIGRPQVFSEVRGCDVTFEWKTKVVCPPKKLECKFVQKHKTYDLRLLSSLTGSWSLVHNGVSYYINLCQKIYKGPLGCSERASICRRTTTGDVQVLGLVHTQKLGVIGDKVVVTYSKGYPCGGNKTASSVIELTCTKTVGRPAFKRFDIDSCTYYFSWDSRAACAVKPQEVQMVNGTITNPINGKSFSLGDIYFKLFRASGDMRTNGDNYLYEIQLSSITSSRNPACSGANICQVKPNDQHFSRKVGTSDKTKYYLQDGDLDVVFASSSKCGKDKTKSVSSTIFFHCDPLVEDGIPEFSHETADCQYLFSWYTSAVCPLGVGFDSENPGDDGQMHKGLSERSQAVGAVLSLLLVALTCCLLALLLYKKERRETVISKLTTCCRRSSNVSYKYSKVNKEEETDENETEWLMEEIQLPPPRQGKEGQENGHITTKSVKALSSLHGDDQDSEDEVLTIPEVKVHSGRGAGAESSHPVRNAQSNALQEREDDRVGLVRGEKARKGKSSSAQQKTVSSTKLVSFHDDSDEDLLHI
# Like-named read-outs stand apart in the source and are kept apart here. Results are given in words; binding and its absence hold for the method and conditions named. For some assays here: In cells and extracts the contact can be indirect. Some binding calls cover weakened binding; strength is not graded here. For some assays here: Where a sequence is shown, tags or fusion partners need not be part of it.
# T1: GFP-VAMP4 (pEGFP-VAMP4) (UniProt O75379)
# T1 sequence: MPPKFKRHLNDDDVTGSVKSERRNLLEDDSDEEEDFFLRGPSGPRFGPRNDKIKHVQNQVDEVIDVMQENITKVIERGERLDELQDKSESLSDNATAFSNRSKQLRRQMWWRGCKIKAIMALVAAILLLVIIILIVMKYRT
# T2: GFP-Syntaxin6 (pEGFP-STX6) (UniProt O43752)
# T2 sequence: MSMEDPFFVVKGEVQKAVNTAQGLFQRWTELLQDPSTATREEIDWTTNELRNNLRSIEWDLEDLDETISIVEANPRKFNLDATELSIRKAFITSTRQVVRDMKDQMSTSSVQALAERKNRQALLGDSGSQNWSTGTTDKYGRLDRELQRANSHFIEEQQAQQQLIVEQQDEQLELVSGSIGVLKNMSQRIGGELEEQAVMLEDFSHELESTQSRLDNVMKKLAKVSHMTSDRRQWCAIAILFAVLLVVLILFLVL
# T3: 3xFLAG-tagged full-length VPS52 (p3x-flag-HD-DEST-VPS52) (UniProt Q8N1B4)
# T3 sequence: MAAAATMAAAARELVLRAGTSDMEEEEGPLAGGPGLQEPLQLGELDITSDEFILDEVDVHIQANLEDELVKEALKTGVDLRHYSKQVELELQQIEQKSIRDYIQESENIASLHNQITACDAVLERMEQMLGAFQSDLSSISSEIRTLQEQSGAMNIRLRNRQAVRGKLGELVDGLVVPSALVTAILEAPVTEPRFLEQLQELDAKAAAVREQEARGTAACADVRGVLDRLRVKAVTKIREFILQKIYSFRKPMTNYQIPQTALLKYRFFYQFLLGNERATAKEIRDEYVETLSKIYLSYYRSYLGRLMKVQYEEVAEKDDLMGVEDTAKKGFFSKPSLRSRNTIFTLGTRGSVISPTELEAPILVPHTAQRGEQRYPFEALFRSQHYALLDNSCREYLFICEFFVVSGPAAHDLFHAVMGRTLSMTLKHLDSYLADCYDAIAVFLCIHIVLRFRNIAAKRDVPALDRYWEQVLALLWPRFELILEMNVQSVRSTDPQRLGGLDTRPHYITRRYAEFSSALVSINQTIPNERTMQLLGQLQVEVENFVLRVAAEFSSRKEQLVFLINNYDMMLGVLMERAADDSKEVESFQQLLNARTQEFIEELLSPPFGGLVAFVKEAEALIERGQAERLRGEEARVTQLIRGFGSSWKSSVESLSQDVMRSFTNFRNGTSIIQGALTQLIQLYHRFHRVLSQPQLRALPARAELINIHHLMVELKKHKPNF
# T4: 3xFLAG-tagged full-length RAB29 (p3x-flag-HD-DEST-RAB29) (UniProt O14966)
# T4 sequence: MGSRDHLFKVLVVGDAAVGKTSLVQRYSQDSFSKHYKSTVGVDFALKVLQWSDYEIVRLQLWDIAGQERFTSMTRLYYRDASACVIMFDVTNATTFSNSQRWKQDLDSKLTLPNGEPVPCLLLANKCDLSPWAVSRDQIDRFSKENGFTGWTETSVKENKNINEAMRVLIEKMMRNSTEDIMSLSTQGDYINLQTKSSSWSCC
# T5: VPS54-GFP (human) (UniProt Q9P1Q0)
# T5 sequence: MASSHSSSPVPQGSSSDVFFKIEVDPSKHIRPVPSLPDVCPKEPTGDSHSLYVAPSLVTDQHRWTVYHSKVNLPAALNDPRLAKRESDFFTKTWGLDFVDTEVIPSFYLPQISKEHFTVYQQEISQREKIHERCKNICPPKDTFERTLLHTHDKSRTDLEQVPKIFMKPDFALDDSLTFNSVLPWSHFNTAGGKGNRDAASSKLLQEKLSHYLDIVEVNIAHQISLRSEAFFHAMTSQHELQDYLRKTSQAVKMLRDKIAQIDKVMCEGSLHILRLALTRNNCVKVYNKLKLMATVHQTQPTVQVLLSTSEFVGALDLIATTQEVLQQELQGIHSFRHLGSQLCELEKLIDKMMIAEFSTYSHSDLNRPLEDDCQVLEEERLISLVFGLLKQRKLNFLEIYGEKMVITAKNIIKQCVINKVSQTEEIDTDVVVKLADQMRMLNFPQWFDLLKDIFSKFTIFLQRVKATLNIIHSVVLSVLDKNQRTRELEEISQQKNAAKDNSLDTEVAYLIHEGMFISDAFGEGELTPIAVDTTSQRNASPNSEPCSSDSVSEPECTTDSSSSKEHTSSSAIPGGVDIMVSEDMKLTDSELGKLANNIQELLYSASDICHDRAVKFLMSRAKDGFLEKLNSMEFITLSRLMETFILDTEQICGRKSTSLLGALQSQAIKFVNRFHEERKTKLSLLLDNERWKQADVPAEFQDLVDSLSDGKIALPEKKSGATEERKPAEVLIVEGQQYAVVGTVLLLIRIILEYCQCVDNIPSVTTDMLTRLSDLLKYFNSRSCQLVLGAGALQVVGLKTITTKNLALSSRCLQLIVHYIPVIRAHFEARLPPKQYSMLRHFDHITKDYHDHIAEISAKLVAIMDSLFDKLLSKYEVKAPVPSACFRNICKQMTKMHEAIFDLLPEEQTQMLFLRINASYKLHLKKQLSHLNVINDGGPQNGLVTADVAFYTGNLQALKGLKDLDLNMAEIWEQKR
# T6: Syndetin-GFP (GFP-tagged VPS50) (UniProt Q96JG6)
# T6 sequence: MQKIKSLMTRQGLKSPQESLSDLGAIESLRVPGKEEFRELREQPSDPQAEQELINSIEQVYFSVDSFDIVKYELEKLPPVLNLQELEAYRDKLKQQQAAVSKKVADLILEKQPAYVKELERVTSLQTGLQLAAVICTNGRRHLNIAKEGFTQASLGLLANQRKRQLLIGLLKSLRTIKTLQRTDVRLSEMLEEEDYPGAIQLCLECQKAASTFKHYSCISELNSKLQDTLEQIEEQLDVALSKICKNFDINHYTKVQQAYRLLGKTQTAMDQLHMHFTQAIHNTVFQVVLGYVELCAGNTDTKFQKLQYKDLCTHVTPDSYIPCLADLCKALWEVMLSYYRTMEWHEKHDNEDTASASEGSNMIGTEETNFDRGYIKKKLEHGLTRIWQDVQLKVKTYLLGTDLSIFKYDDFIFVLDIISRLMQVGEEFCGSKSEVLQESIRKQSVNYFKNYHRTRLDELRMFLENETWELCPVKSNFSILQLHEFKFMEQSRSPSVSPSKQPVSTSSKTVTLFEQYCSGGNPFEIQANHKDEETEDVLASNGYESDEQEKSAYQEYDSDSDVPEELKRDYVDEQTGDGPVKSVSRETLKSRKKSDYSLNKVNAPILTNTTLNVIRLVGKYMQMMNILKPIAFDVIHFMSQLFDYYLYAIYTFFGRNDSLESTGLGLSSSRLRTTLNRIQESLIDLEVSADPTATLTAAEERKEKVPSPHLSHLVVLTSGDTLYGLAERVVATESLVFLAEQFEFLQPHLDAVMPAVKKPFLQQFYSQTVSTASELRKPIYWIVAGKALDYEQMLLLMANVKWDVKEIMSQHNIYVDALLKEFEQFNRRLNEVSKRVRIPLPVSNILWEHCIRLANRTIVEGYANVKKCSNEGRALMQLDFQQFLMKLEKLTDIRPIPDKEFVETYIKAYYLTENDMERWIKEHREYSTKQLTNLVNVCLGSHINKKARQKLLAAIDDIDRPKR
# T7: VPS52 spotted on the Protoarray, version 5.2 (UniProt Q8N1B4)
# T7 sequence: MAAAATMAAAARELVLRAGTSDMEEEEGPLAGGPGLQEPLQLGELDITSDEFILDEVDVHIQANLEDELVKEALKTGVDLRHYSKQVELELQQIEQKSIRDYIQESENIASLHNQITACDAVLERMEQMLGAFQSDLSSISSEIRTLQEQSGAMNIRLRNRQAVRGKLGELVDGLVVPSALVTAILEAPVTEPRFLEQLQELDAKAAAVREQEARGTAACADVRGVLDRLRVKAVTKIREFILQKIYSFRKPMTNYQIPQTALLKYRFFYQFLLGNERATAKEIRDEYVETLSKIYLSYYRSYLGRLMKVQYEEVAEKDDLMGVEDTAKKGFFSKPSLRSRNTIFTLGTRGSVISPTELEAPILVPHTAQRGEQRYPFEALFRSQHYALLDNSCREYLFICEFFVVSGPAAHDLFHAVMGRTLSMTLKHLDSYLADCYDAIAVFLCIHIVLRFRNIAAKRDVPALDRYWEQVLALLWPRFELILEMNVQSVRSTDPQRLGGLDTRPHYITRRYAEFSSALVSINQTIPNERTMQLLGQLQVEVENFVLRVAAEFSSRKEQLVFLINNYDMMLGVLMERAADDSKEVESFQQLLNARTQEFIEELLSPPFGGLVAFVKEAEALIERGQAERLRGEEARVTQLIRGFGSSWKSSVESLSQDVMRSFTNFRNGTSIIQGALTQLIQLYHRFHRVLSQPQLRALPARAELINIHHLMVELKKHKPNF
# What was measured:
# [1] = biological target: T1, GFP-VAMP4 (pEGFP-VAMP4); test: co-IP; HEK293FT transfected with GFP-tagged VAMP4 or Syntaxin-6 (GFP alone as control); GFP-Trap agarose 1 h at 4°C; blotted for endogenous partners; for VPS52 also after siRNA against LRRK2 or RAB29 or a non-targeting control
# [2] = biological target: T2, GFP-Syntaxin6 (pEGFP-STX6); test: as above
# [3] = biological target: T3, 3xFLAG-tagged full-length VPS52 (p3x-flag-HD-DEST-VPS52); test: co-IP; HEK293FT transfected with 3xFLAG-tagged bait; lysate in 20 mM Tris-HCl pH 7.5, 150 mM NaCl, 1 mM EDTA, 0.3% Triton X-100, 10% glycerol; anti-flag M2 agarose 1 h at 4°C; eluted with 3xflag peptide; blotted for endogenous partners; mock and FLAG-GUS as negative controls
# [4] = biological target: T4, 3xFLAG-tagged full-length RAB29 (p3x-flag-HD-DEST-RAB29); test: as above
# [5] = biological target: T5, VPS54-GFP (human); test: co-IP; HEK293FT transfected with GFP-tagged VPS50 (syndetin) or VPS54 and FLAG-tagged LRRK2; which protein was precipitated is not told
# [6] = biological target: T6, Syndetin-GFP (GFP-tagged VPS50); test: as above
# [7] = biological target: 3xFLAG-tagged full-length LRRK2 (pCHMWS-3xflag-LRRK2) (UniProt Q5S007); test: co-IP; HEK293FT transfected with 3xFLAG-tagged bait; lysate in 20 mM Tris-HCl pH 7.5, 150 mM NaCl, 1 mM EDTA, 0.3% Triton X-100, 10% glycerol; anti-flag M2 agarose 1 h at 4°C; eluted with 3xflag peptide; blotted for endogenous partners; mock and FLAG-GUS as negative controls
# [8] = biological target: T7, VPS52 spotted on the Protoarray, version 5.2; test: peptide or protein array; Protoarrays version 5.2 (Thermo Scientific) probed with 6 micrograms of purified 3x-flag-tagged protein; detected with biotinylated anti-Flag M2 and Alexa Fluor 647 streptavidin; 3x-flag eGFP as control; hits by ProtoArray Prospector (Z-scores); both purified
# [9] = biological target: 3xFLAG-tagged full-length LRRK2 (pCHMWS-3xflag-LRRK2) (UniProt Q5S007); test: co-IP; HEK293FT transfected with 3xFLAG-tagged bait; lysate in 20 mM Tris-HCl pH 7.5, 150 mM NaCl, 1 mM EDTA, 0.3% Triton X-100, 10% glycerol; anti-flag M2 agarose 1 h at 4°C; eluted with 3xflag peptide; blotted for endogenous partners; mock and FLAG-GUS as negative controls; remark: listed apart in the source
# [10] = biological target: T4, 3xFLAG-tagged full-length RAB29 (p3x-flag-HD-DEST-RAB29); test: as above; remark: listed apart in the source
# [11] = biological target: T2, GFP-Syntaxin6 (pEGFP-STX6); test: co-IP; HEK293FT transfected with GFP-tagged VAMP4 or Syntaxin-6 (GFP alone as control); GFP-Trap agarose 1 h at 4°C; blotted for endogenous partners; for VPS52 also after siRNA against LRRK2 or RAB29 or a non-targeting control; remark: listed apart in the source
# [12] = biological target: 3xFLAG-tagged full-length LRRK2 (pCHMWS-3xflag-LRRK2) (UniProt Q5S007); test: co-IP; mapping: full-length LRRK2 and LRRK2 domain constructs in cells, blotted for endogenous VPS52 (Figure S2A); tags and beads not told for this experiment
molecule,measurement,setting,value
endogenous LRRK2 (from UniProt Q5S007 1-2527),binding,[1],binds
same,binding,[2],binds
same,binding,[3],binds
same,binding,[4],binds
3xFLAG-tagged full-length LRRK2 (pCHMWS-3xflag-LRRK2) (from UniProt Q5S007 1-2527),binding,[5],binds
same,binding,[6],binds
endogenous CI-M6PR (from UniProt P11717 41-2491) (receptor),binding,[7],binds
same,binding,[3],binds
same,binding,[4],binds
"3xFLAG-tagged full-length RAB29 (p3x-flag-HD-DEST-RAB29) (protein, UniProt O14966 1-203) MGSRDHLFKVLVVGDAAVGKTSLVQRYSQDSFSKHYKSTVGVDFALKVLQWSDYEIVRLQLWDIAGQERFTSMTRLYYRDASACVIMFDVTNATTFSNSQRWKQDLDSKLTLPNGEPVPCLLLANKCDLSPWAVSRDQIDRFSKENGFTGWTETSVKENKNINEAMRVLIEKMMRNSTEDIMSLSTQGDYINLQTKSSSWSCC",binding,[8],binds
"endogenous VPS52 (protein, UniProt Q8N1B4 1-723) MAAAATMAAAARELVLRAGTSDMEEEEGPLAGGPGLQEPLQLGELDITSDEFILDEVDVHIQANLEDELVKEALKTGVDLRHYSKQVELELQQIEQKSIRDYIQESENIASLHNQITACDAVLERMEQMLGAFQSDLSSISSEIRTLQEQSGAMNIRLRNRQAVRGKLGELVDGLVVPSALVTAILEAPVTEPRFLEQLQELDAKAAAVREQEARGTAACADVRGVLDRLRVKAVTKIREFILQKIYSFRKPMTNYQIPQTALLKYRFFYQFLLGNERATAKEIRDEYVETLSKIYLSYYRSYLGRLMKVQYEEVAEKDDLMGVEDTAKKGFFSKPSLRSRNTIFTLGTRGSVISPTELEAPILVPHTAQRGEQRYPFEALFRSQHYALLDNSCREYLFICEFFVVSGPAAHDLFHAVMGRTLSMTLKHLDSYLADCYDAIAVFLCIHIVLRFRNIAAKRDVPALDRYWEQVLALLWPRFELILEMNVQSVRSTDPQRLGGLDTRPHYITRRYAEFSSALVSINQTIPNERTMQLLGQLQVEVENFVLRVAAEFSSRKEQLVFLINNYDMMLGVLMERAADDSKEVESFQQLLNARTQEFIEELLSPPFGGLVAFVKEAEALIERGQAERLRGEEARVTQLIRGFGSSWKSSVESLSQDVMRSFTNFRNGTSIIQGALTQLIQLYHRFHRVLSQPQLRALPARAELINIHHLMVELKKHKPNF",binding,[9],binds
same,binding,[10],binds
same,binding,[11],binds
same,binding,[12],binds
